Source: the supplement of paper PMC11417369
± gives the standard deviation of the averaged measurements. This is one part of the list.

test system: PfAP2-G AP2 domain (GST-tagged); experiment: gcPBM binding intensity (ln(normalized median fluorescence intensity)); higher = stronger DNA binding
Outline: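 The highest Masliner-normalised natural-log median intensity across replicate spots of either probe orientation is reported as binding intensity. GST-tagged P. falciparum DNA-binding domains expressed in E. coli were applied for 1 h to an Agilent 4 × 180k array of primer-extended double-stranded 36-bp intergenic genomic probes plus negative controls, and bound protein was detected with Alexa488 anti-GST antibody and scanned at 488 nm.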

Row | Sequence | gcPBM binding intensity (ln)
1 | TTTTTCATTTTTAAAATAATTATAATATTATACATA [XGTACX_negctrl_site43] | 10 ± 0.14
2 | TAAATCAGCCATAACACACATACATATATACATAAA [CACACA_site396] | 9.895 ± 0.078
3 | ATATATATGTGTAAAAGTACATATATTTTGAAATAT [XGTACX_site4024] | 11.2 ± 0.79
4 | TTTTAATAAAAGCCCATGCACACCTTAGAAAGTTTT [CACACA_site346] | 10.04 ± 0.099
5 | TCTATATAGATTTGCACACATAAAAATGCTTATATA [CACACA_site2389] | 9.97 ± 0.2
6 | ATTACATATTGATAAGTGCAAGTGTGAGAAATGTTA | 10.2 ± 0.14
7 | AATATATTATATATATGTACATATGTGTATACATTT [XGTACX_site937] | 11.1 ± 0.54
8 | TTTTATTTATTTTATTGTACATATATAAAACTATGA [XGTACX_site3476] | 11.1 ± 0.63
9 | TATATATATGTATATGTGCACAGTTTTCTTATTAAA [GTGCAC_site9990] | 10.4 ± 0.24
10 | TGGGCACCCATATACACACACAAATACAATGATAAA [CACACA_site4762] | 10.2 ± 0.22
11 | GGAAAAGGTATCCGTTCACACATAAATGGATACCAT [CACACA_site5072] | 10.5 ± 0.4
12 | AAAAAAAAAAAAATGTGTACATACATATATTTATAT [XGTACX_site3076] | 11.5 ± 0.88
13 | ATTAAAAAATTACAAGCATGCTTGTTAAAATTTTTT [TGCATGCA_site941] | 9.49 ± 0.057
14 | CTTTTTTTTTTAAATTGTACAAATGTGATGTAATAG [XGTACX_site3219] | 10.9 ± 0.63
15 | CAATCAAATGGACACACACACACCTAAACATAAAAG [CACACA_site5524] | 10.9 ± 0.71
16 | AAAAAAAGATTATACACACACATATATAAACCTACA [CACACA_site710] | 9.97
17 | TTTTTTTTTTTTGAAACATGCATTGTTTTATTCTTA [TGCATGCA_site15] | 9.68 ± 0.24
18 | TCTATACCTATTCTTACACACATATGTATATATATA [CACACA_site563] | 10.14 ± 0.092
19 | AATAATAACTGTAGGTGTACGTAAAAAAAAAATTAT [XGTACX_site3133] | 11.7 ± 0.96
20 | ATTGTGTTCATCAGCACACACAACATCATGCAATAA [CACACA_site6960] | 10 ± 0.13
21 | ATATATATATAATCAAGTACACAGTAATAAAAAGAA [XGTACX_site1070] | 11.3 ± 0.6
22 | TTTTTTTTTTTTTGTTGTACAATACTTAATCATTAT [XGTACX_site3422] | 11.2 ± 0.92
23 | AAAAATTTAATGAAATGTACATATATGTTATTAATA [XGTACX_site6091] | 10.8 ± 0.4

Row | Sequence | gcPBM binding intensity (ln)
24 | AATAACCACCAACACACACACATATATATATATATA [CACACA_site3540] | 10.1 ± 0.22
25 | ATAATAATAATAAAAAGTACATTTAATTATATAGAA [XGTACX_site7742] | 11.3 ± 0.83
26 | TATATGTTTTAAAAGTGTACTTTAGTTTCAATTTTT [XGTACX_site4269] | 11.3 ± 0.92
27 | AAGAATGTTAATAGTACACACAATTATTATATAAAT [CACACA_site3739] | 11.3 ± 0.91
28 | AATAAAAAAAGTTTTTTTTTTTTTTAAACAATAGAC [CACACA_negctrl_site1061] | 9.83 ± 0.099
29 | TAAATGCACATATACACACACCCAATTTTAAGTTTT [CACACA_site7428] | 10.05 ± 0.057
30 | ATACATATTACATGTTGTACTCCAACAAAAATGCCC [XGTACX_site3201] | 11.6 ± 0.95
31 | TTAATTTCATTTTCTACACACCTATCCTTTTTTTTT [CACACA_site772] | 10 ± 0.11
32 | ACATCAAGAATTATTAAGAATACGGATAGATAAAAT [GTGCAC_negctrl_site261] | 9.98 ± 0.028
33 | ATGTGATATAAGTACACACACATATGTATATAGAAT [CACACA_site1823] | 11.5 ± 1.1
34 | TTTCAAAATGTGTAAAATAAAAATAATATCATTACA [TGCATGCA_negctrl_site521] | 9.71 ± 0.014
35 | GAAAAGAACAAGAGCATGCACTTAATAAGAATAATA | 9.75 ± 0.028
36 | TGTTTCTTATTTTTTTCACACACTAAACATTTCAAA [CACACA_site2218] | 10.2 ± 0.2
37 | AATGTATATATGTAATGTACATATGTAATGTATATA [XGTACX_site6509] | 10.8 ± 0.41
38 | TTTTGTTTTGTTTTGTTTTGTTTTGTTTTATTTTAT [GTGCAC_negctrl_site383] | 9.86 ± 0.27
39 | AATATAGATATAACCACACACATACATCTAATTCTA [CACACA_site1760] | 10.04 ± 0.028
40 | TATGTCGACATTTAAAGTACAAAAAAAAAAAAAAAA [XGTACX_site8985] | 11 ± 0.96
41 | ATTTATTTAAACAAATCACACACAAATATATATACA [CACACA_site8622] | 10.2 ± 0.17
42 | TATATTAAAATATTCACACACTAACGTAAATCATTG [CACACA_site5520] | 9.89 ± 0.014
43 | TACACGTTCTACATTTGTACTTAATTTATACATAAG [XGTACX_site1579] | 11.2 ± 0.73
44 | TACGTCTTTTTTTTGGTGCATAATTTTTTTGTACAA | 10.8 ± 0.44
45 | AATTTTGTTAAAAGGACACACAATTCAATATATTAA [CACACA_site647] | 11.1 ± 0.73
46 | ATTACATGATATATCACACACACATATAGATATATA [CACACA_site7352] | 9.97 ± 0.042

Row | Sequence | gcPBM binding intensity (ln)
47 | GCTATTAATTTATAAGCACACAATATAAATATATAT [CACACA_site2251] | 10 ± 0.11
48 | CATACATAGATATATACACACATACCTATAAATACA [CACACA_site6513] | 10.1 ± 0.23
49 | TATATATGTGTTATATACCCTTTTTTATATATTAAT [XGTACX_negctrl_site313] | 9.96 ± 0.13
50 | TAAAAATCCACAAGCACACAAATGTACATATATATA [CACACA_site2462] | 11.1 ± 0.55
51 | ATAGAACAGAAAAGGCGTACAATAATATGTAAACAA [XGTACX_site2828] | 11.8 ± 1.1
52 | AAAAAAAAAATATGTACACACATATATAATACATAA [CACACA_site1639] | 11.5 ± 0.91
53 | TATAAAAAGCATAACACACACATGTCAATATATATA [CACACA_site1111] | 9.98 ± 0.2
54 | ATTAAAAAAATATAAACACACAAAAAAAAAATATAC [CACACA_site1100] | 10.1 ± 0.15
55 | TAATGAAAAAATAAAAGAATAAATAAATAAATAAAT [TGCATGCA_negctrl_site130] | 9.32 ± 0.23
56 | AGAAAAGAGAAAAGTAGTACAAAGGATCATTTAAAA [XGTACX_site5294] | 11.3 ± 0.71
57 | TTAAGTCCGTTAACAGTGCATTTTTTCTTTTATGTA [GTGCAC_site9867] | 10.2 ± 0.11
58 | AAAAATTATATATATATATATATATATATATGTATA [GTGCAC_negctrl_site488] | 9.515 ± 0.021
59 | TGGTAAATTTACCGTTGTACATTCATTTATAACATT [XGTACX_site8910] | 10.8 ± 0.51
60 | AAGAATATTAATATAAATAAGTAAATAAATAAATAA [CACACA_negctrl_site417] | 9.78 ± 0.11
61 | CATATGTCTTGAGATCGTACGTTATTTTTTTTATTT [XGTACX_site1381] | 10.9 ± 0.4
62 | TATATATATATATATATATATATATATATATGTATA [TGCATGCA_negctrl_site17] | 9.72 ± 0.67
63 | GTATTATTATTATGCACACAAAAATATTTATACATA [CACACA_site3656] | 10.3 ± 0.27
64 | TATAAATTTAAAATGACACACACTAAAATTATTTAA [CACACA_site1239] | 10.3 ± 0.33
65 | TTTTAATCTTAATTATGTACATATAAAATGTGTATA [XGTACX_site7382] | 11.2 ± 0.69
66 | CTATTTCAATTTAGTGCACACATTTTAATTTATAAG [CACACA_site2040] | 10.7 ± 0.55
67 | ACATACACATATACATGTACATATATATATATATAT [XGTACX_site5082] | 11 ± 0.58
68 | TATGAAAAGATATATACACACATAATAAAGGTATAT [CACACA_site7713] | 10.08 ± 0.057
69 | CATTATTATTAACATACACACGTGTTAAATACACCC [CACACA_site6118] | 10.4 ± 0.35

Row | Sequence | gcPBM binding intensity (ln)
70 | ATTAAAACAAAATGTACACACATATCATTTAATGAC [CACACA_site6543] | 11.2 ± 0.8
71 | TTTTTAGAAAGACATGCATGTAATAAAAATAAATAA [TGCATGCA_site685] | 9.855 ± 0.049
72 | ATACATATATGCTTCTGTACACATAATTTATAAAAA [XGTACX_site7000] | 11.6 ± 0.79
73 | ATATTCATTAACCACACACACAAAAAAAATAAAATT [CACACA_site3801] | 10.2 ± 0.25
74 | ATATATGTATTTAATACACACAAAACTTTCATTCCA [CACACA_site3531] | 10 ± 0.15
75 | AAATATAATAACATAACACACACATGTATTTATAGG [CACACA_site8009] | 10.2 ± 0.2
76 | TTTTAATAAATTCAAAACATAAAAAGGAAAAAAAAA [XGTACX_negctrl_site471] | 9.81 ± 0.2
77 | TAGATTTTTATGCGTGCACACATTTAAAAAAAAAAC [CACACA_site3421] | 10.6 ± 0.48
78 | ATACCTACATACATACGTACATATATATATATAATG [XGTACX_site234] | 11.4 ± 0.91
79 | TTTTTTTCATAAGAAGCACACAAAAAATGATAGAGA [CACACA_site8401] | 10.5 ± 0.38
80 | ATATATATATATATATGTACTTATTTGTATAAATAC [XGTACX_site8031] | 11.3 ± 0.96
81 | TATAATGAGAAGATATAATATATAGGGGGTAATTCT [GTGCAC_negctrl_site228] | 10.5 ± 0.16
82 | ATTCTTTATTATTCGCCACACACATATATATATATA [CACACA_site9009] | 10.3 ± 0.24
83 | TTTTTATTATTCCATAGTACAGAAAAAATGATATAT [XGTACX_site3431] | 10.9 ± 0.64
84 | TATTGGAAAATTAGAAGTACTTTCATATATTAGACT [XGTACX_site4503] | 11.3 ± 0.81
85 | ATATTTTCCCTTGTTTTACACACGTGCTGATATGAG [CACACA_site8672] | 10.3 ± 0.14
86 | AATTTGAAATATGTGGTGCAGTTATATAATATGTTT [GTGCAC_site9885] | 10.29 ± 0.049
87 | ATATAAAAAAATAATAAATAAATAAAAAGATTTCTT [XGTACX_negctrl_site110] | 9.47 ± 0.23
88 | CTTGTATAGAAACACACACACACTTTCTTTTTTTAA [CACACA_site1964] | 10.2 ± 0.23
89 | TATATTAATAAAGGTACTACACGGAAATGGAAATAT [XGTACX_site7760] | 11.3 ± 0.68
